Further values from the same series stand in other lists.
Experiments:
Test in all cases: concentration in plasma after dosing
[1] = tested on: Rat; conditions: dosed: Isoeugenol, 17 mg/kg, iv, Female, F344/N
[2] = tested on: Rat; conditions: dosed: Isoeugenol, 70 mg/kg, oral, Female, F344/N
[3] = tested on: Rat; conditions: dosed: Isoeugenol, 70 mg/kg, oral, Male, F344/N
[4] = tested on: Rat; conditions: dosed: Isoeugenol, 140 mg/kg, oral, Male, F344/N
[5] = tested on: Rat; conditions: dosed: Isoeugenol, 140 mg/kg, oral, Male, F344/N; remark: listed apart in the source
[6] = tested on: Rat; conditions: dosed: Isoeugenol, 17 mg/kg, iv, Male, F344/N
[7] = tested on: Rat; conditions: dosed: Isoeugenol, 70 mg/kg, oral, Female, F344/N; remark: listed apart in the source
[8] = tested on: Rat; conditions: dosed: Isoeugenol, 70 mg/kg, oral, Female, F344/N; remark: listed apart in the source
[9] = tested on: Rat; conditions: dosed: Isoeugenol, 140 mg/kg, oral, Female, F344/N
[10] = tested on: Rat; conditions: dosed: Isoeugenol, 17 mg/kg, iv, Female, F344/N; remark: listed apart in the source
[11] = tested on: Rat; conditions: dosed: Perfluorohexane-1-sulphonic acid – potassium salt, 4 mg/kg, Female, F344
[12] = tested on: Rat; conditions: dosed: Perfluorohexane-1-sulphonic acid – potassium salt, 32 mg/kg, oral, Male, Harlan Sprague Dawley
[13] = tested on: Rat; conditions: 6 h; dosed: Perfluorohexane-1-sulphonic acid – potassium salt; 16 mg/kg; oral; Female; Harlan Sprague Dawley
[14] = tested on: Rat; conditions: dosed: Perfluorohexane-1-sulphonic acid – potassium salt, 16 mg/kg, oral, Female, Harlan Sprague Dawley
[15] = tested on: Rat; conditions: dosed: Perfluorohexane-1-sulphonic acid – potassium salt, 32 mg/kg, oral, Female, Harlan Sprague Dawley
[16] = tested on: Rat; conditions: dosed: Perfluorohexane-1-sulphonic acid – potassium salt, 4 mg/kg, oral, Female, Harlan Sprague Dawley
[17] = tested on: Rat; conditions: dosed: Perfluorohexane-1-sulphonic acid – potassium salt, 32 mg/kg, oral, Male, F344
[18] = tested on: Rat; conditions: 12 h; dosed: Perfluorohexane-1-sulphonic acid – potassium salt; 16 mg/kg; oral; Female; Harlan Sprague Dawley
[19] = tested on: Rat; conditions: dosed: Perfluorohexane-1-sulphonic acid – potassium salt, 32 mg/kg, oral, Female, Harlan Sprague Dawley; remark: listed apart in the source
[20] = tested on: Rat; conditions: 12 h; dosed: Perfluorohexane-1-sulphonic acid – potassium salt; 16 mg/kg; oral; Female; F344
[21] = tested on: Rat; conditions: dosed: Perfluorohexane-1-sulphonic acid – potassium salt, 32 mg/kg, oral, Male, Harlan Sprague Dawley; remark: listed apart in the source
[22] = tested on: Rat; conditions: dosed: Fluorotelomer alcohol 8+2, 40 mg/kg, oral, Female, Harlan Sprague Dawley
[23] = tested on: Rat; conditions: dosed: Fluorotelomer alcohol 8+2, 40 mg/kg, oral, Female, Harlan Sprague Dawley; remark: listed apart in the source
[24] = tested on: Rat; conditions: dosed: Fluorotelomer alcohol 8+2, 40 mg/kg, oral, Female, Harlan Sprague Dawley; remark: listed apart in the source
[25] = tested on: Rat; conditions: dosed: Fluorotelomer alcohol 8+2, 80 mg/kg, oral, Female, Harlan Sprague Dawley
[26] = tested on: Rat; conditions: dosed: Fluorotelomer alcohol 8+2, 48 mg/kg, oral, Male, Harlan Sprague Dawley
[27] = tested on: Rat; conditions: dosed: Fluorotelomer alcohol 8+2, 48 mg/kg, oral, Male, Harlan Sprague Dawley; remark: listed apart in the source
[28] = tested on: Rat; conditions: 6 h; dosed: Fluorotelomer alcohol 8+2; 24 mg/kg; oral; Male; Harlan Sprague Dawley
[29] = tested on: Rat; conditions: 1 h; dosed: Fluorotelomer alcohol 8+2; 80 mg/kg; oral; Female; Harlan Sprague Dawley
[30] = tested on: Rat; conditions: 12 h; dosed: Fluorotelomer alcohol 8+2; 80 mg/kg; oral; Female; Harlan Sprague Dawley
[31] = tested on: Rat; conditions: 1 h; dosed: Fluorotelomer alcohol 8+2; 24 mg/kg; oral; Male; Harlan Sprague Dawley

C/C=C/c1ccc(O)c(OC)c1 [Isoeugenol]
Conditions | concentration in plasma [ng/mL]
[1], 1 h | 256
[1], 2.5 h | 90.5
[2], 1.5 h | 236
[2], 2 min | 2050
[3], 0.75 h | 148
[3], 2 h | 63.1
[4], 2 h | 634
[4], 10 min | 1210
[5], 1.5 h | 463
[5], 3 h | 453
[6], 1.5 h | 164
[6], 10 min | 4380
[7], 0.75 h | 263
[7], 8 h | 151
[8], 2 h | 523
[8], 20 min | 717
[9], 2 h | 824
[9], 10 min | 1980
[10], 3 h | 83.5
[10], 10 min | 4610

O=S(=O)([O-])C(F)(F)C(F)(F)C(F)(F)C(F)(F)C(F)(F)C(F)(F)F.[K+] [Perfluorohexane-1-sulphonic acid – potassium salt]
Conditions | concentration in plasma [ng/mL]
[11], 0.5 h | 43700
[11], 12 h | 25000
[11], 864 h | 7990
[12], 1 h | 88800
[12], 12 h | 206000
[12], 864 h | 38600
[14], 1 h | 74400
[14], 528 h | 61.1
[15], 0.25 h | 68700
[15], 12 h | 109000
[15], 192 h | 6840
[16], 1 h | 15900
[16], 24 h | 21400
[16], 288 h | 346
[17], 3 h | 146000
[17], 48 h | 52400
[17], 528 h | 93
[19], 6 h | 172000
[19], 96 h | 27800
[21], 6 h | 180000
[21], 192 h | 103000

Conditions | concentration in plasma [ng/mL]
[13] | 82600
[18] | 79300
[20] | 134000

O=C(O)CCC(F)(F)C(F)(F)C(F)(F)C(F)(F)C(F)(F)C(F)(F)C(F)(F)F [Fluorotelomer acid 7+3]
Conditions | concentration in plasma [ng/mL]
[22], 48 h | 183
[22], 192 h | 83.6
[23], 0.75 h | 828
[23], 12 h | 1470
[24], 0.5 h | 371
[24], 9 h | 1390
[25], 0.25 h | 122
[25], 24 h | 1050
[26], 48 h | 321
[26], 192 h | 75.9
[27], 0.25 h | 30.2
[27], 6 h | 2420

Conditions | concentration in plasma [ng/mL]
[28] | 903
[29] | 1200
[30] | 1600
[31] | 716

From EPA's CvTdb concentration-time database
